We go through 25 compounds from PMC11637378, “Optogenetic screening of MCT1 activity implicates a cluster of non-steroidal anti-inflammatory drugs (NSAIDs) as inhibitors of lactate transport” (PLOS ONE, 2024).

The structures appear in SMILES notation. Where a name gives a salt, the structure may show the parent alone. Read-outs that look alike come from different tables or passages of the source.

For the assay, the target named is T1, R. norvegicus MCT1 (F360C) (UniProt P36035+P53987, F360C).
T1 sequence (P36035+P53987 with tags, fused parts or gaps P53987:F360C): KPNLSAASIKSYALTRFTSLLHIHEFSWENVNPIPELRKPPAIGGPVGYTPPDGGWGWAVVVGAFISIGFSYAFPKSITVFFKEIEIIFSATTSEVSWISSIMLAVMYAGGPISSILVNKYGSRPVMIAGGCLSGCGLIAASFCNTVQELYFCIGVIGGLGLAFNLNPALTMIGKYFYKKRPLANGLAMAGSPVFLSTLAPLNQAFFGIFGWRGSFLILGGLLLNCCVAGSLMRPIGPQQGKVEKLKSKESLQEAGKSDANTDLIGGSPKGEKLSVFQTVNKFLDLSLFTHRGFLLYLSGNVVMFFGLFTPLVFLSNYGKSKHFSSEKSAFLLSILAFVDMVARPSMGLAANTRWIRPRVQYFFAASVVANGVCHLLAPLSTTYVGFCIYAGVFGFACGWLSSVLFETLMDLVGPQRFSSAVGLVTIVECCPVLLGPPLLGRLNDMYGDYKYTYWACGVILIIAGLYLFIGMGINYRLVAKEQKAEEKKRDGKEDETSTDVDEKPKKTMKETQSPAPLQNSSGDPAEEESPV
The class given is cell-based.

As to `CC(C(=O)O)c1cccc(C(=O)c2ccccc2)c1` (stereo not drawn) [Ketoprofen], the “Percent AZD3965” value is recorded as -2.524% and the Z-score is given as 0.1811.
For `CC(C(=O)O)c1ccc(N2Cc3ccccc3C2=O)cc1` (stereo not drawn) [Indoprofen], the “Percent AZD3965” value is recorded as -3.347% and the Z-score is 0.23.
`CCC(C)n1ncn(-c2ccc(N3CCN(c4ccc(OCC5COC(Cn6cncn6)(c6ccc(Cl)cc6Cl)O5)cc4)CC3)cc2)c1=O` (stereo not drawn) [Itraconazole] showed a Day1 of 0.1402, a Day2 of 0.7721, a Fraction of 0.1816 and a Percent of 94.034%. The compound also yielded a Z.score of -3.846.
On the same counts, the results for `COc1ccc([C@@H](C)C(=O)c2ccc(O)cc2O)cc1` [Angolesin] are 0.3653, 0.8022, 0.4554, 43.3447% and -3.613.
With `CC(C)c1c(C(=O)Nc2ccccc2)c(-c2ccccc2)c(-c2ccc(F)cc2)n1CC[C@@H](O)C[C@@H](O)CC(=O)O` [Atorvastatin calcium salt trihydrate], under “10 μM”, the Fraction is recorded as 0.3298, the “Percent AZD3965” value is recorded as 60.5626% and the Z.score is -4.426.
As for `Oc1ccc(Nc2nc(-c3ccc(Cl)cc3)cs2)cc1` [SKI II], the Day1 came to 0.1611, the Day2 is 0.8012, the Fraction is listed as 0.2011 and the “Percent AZD3965” value is reported as 91.1182%. Besides, the Z.score is on record as -4.748.
As for `COc1ccc2cc(CCC(C)=O)ccc2c1` [Nabumetone], the “Percent AZD3965” value is recorded as -4.003% and the Z-score is given as 0.2159.
The compound `O=c1cc(-c2ccc(O)cc2)oc2cc(O)cc(O)c12` [Apigenin] yielded a Day1 of 0.3196, a Day2 of 0.841, a Fraction of 0.38 and a Percent of 50.3113%. This compound displayed a Z.score of -3.677. Under “10 μM”, the Fraction came to 0.38, the “Percent AZD3965” value is given as 50.3113% and the Z.score is listed as -3.677.
Turning to `O=c1c(O)c(-c2ccc(O)c(O)c2)oc2cc(O)cc(O)c12` [Quercetin dihydrate], the Day1 turned out to be 0.2177, the Day2 amounted to 0.8165, the Fraction is 0.2666 and the “Percent AZD3965” value was determined as 79.1565%. Further, the Z.score is -5.348.
`CC1=C(CC(=O)O)c2cc(F)ccc2/C1=C\c1ccc([S+](C)[O-])cc1` (stereo not drawn) [Sulindac, reference compound]: the Day1 turned out to be 0.2243, the Day2 is given as 0.8596, the Fraction is listed as 0.2609 and the Offtarget_sub was determined as 0.079. The Z.score is reported as -3.5285.
For `CCN(CC)C(=S)SSC(=S)N(CC)CC` [Tetraethylthiuram disulfide], the Day1 stood at 0.0435, the Day2 is 0.1492, the Fraction turned out to be 0.2916 and the “Percent AZD3965” value worked out at 74.5715%. Moreover, the Z.score was -5.039.
For `COc1c(C)c2c(c(O)c1C/C=C(\C)CCC(=O)O)C(=O)OC2` [Mycophenolic (Mycophenolate)], in that order: 0.2166, 0.8323, 0.2602, 77.8422% and -3.184.
Take `CCCc1c(-c2ccc(O)cc2)nn(-c2ccc(O)cc2)c1-c1ccc(O)cc1`: the Day1 turned out to be 0.1177, the Day2 is 0.7933, the Fraction is recorded as 0.1484 and the Percent is recorded as 98.6204%. The compound further came in with a Z.score of -5.549.
On to `CCN(CC)C(=O)C1(c2ccccc2)CC1CN` (stereo not drawn) [Milnacipran], for which the Day1 stood at 0.074, the Day2 worked out at 0.8305, the Fraction came to 0.0891 and the Percent is listed as 111.097%. Besides, the Z.score is -5.08.
With `O=C1NC(=O)/C(=C\c2cccc(C(F)(F)F)c2)S1` [TCS PIM-1 4a], the Day1 was 0.2915, the Day2 is given as 0.6732, the Fraction was determined as 0.433 and the “Percent AZD3965” value stood at 50.7263%. The compound also displayed a Z.score of -3.138.
On the same counts, the results for `N#CC[C@@H](C1CCCC1)n1cc(-c2ncnc3[nH]ccc23)cn1` [S-Ruxolitinib (INCB018424)] are 0.2084, 0.8208, 0.2539, 82.8995% and -5.127.
For `CCC[C@H](NC(=O)/C(C#N)=C/c1cccc(Br)n1)c1ccccc1` [WP1130], in that order: 0.1984, 0.8053, 0.2464, 80.6983% and -3.301.
In the case of `CC(C)NNC(=O)c1ccncc1.O=P(O)(O)O` [Iproniazid phosphate, reference compound], the “Day1 (OD600 after 24 hours non-permissive dark conditions)” value worked out at 0.56 and the “Day2 (OD600 after additional 24 hours permissive conditions)” value came out at 0.8314. In addition, under “10 μM”, the “Fraction (growth in non-permissive phase divided by growth in permissive phase)” value was 0.6736, the “Percent (percent AZD3965 score)” value is given as -2.339% and the Z-score is on record as 0.1584.
For the compound `O=C(O)Cn1c(C(=O)Nc2nc(-c3ccccc3Cl)cs2)cc2ccccc21` [SR 27897 hydrate], where the note is “10 μM”, the Fraction is on record as 0.3212, the “Percent AZD3965” value is 63.9018% and the Z.score is reported as -3.5958.
With `OCc1ccccc1O[C@@H]1O[C@H](CO)[C@@H](O)[C@H](O)[C@H]1O` [Salicin], the “Percent AZD3965” value is reported as -5.623% and the Z-score is 0.4251.
The compound `O=C(O)Cn1c(C(=O)Nc2nc(-c3ccccc3Cl)cs2)cc2ccccc21` [SR-27897] came in with a Day1 of 0.2576, a Day2 of 0.802, a Fraction of 0.3212 and an Offtarget_sub of 0.1161. Moreover, the Z.score is recorded as -3.5958.
As for `C[C@@H]1CC[C@H]2[C@@H](C)C(=O)O[C@@H]3O[C@@]4(C)CC[C@@H]1[C@]32OO4` [ARTEMISININ], the Day1 is on record as 0.289 and the Day2 is 0.8202. For the same compound, for the setting “10 μM”, the Fraction is recorded as 0.3524, the “Percent AZD3965” value is on record as 63.2237% and the Z.score is recorded as -3.1904.
As for `CCCCC1=NC2(CCCC2)C(=O)N1Cc1ccc(-c2ccccc2-c2nnn[nH]2)cc1` [Irbesartan], the Day1 is reported as 0.2232, the Day2 is recorded as 0.7566, the Fraction came out at 0.295 and the Percent was found to be 70.4376%. Also, the “Percent AZD3965” value was 70.4376% and the Z.score is -3.221.
Consider `O=C1c2ccc(Nc3ccc(F)cc3F)cc2CCc2ccc(OC[C@H](O)CO)cc21` [Skepinone-L], for which the Day1 is recorded as 0.1972, the Day2 came out at 0.8545, the Fraction is reported as 0.2308 and the Offtarget_sub is listed as 0.0432. The “Percent AZD3965” value worked out at 85.5135% and the Z.score is reported as -4.456.
As for `CN(C)CCCOc1nn(Cc2ccccc2)c2ccccc12` [Benzydamine], the “Percent AZD3965” value turned out to be 0.977% and the Z-score is -0.1176.
